Sequences and labels used below:
B1: CPEB3 Ribozyme (parent)
chain: UAACAGGGGGCCACAGCAGAAGCGUUCACGUCGCAGCCCCUGUCAGAUUCUGGUGAAUCUGCGAAUUCUGCUGUAUAUCUC

The source gives no read counts; variants with many changes may rest on few reads.

The data set covers variants of B1. The data set can be described thus: self-cleavage, relative activity (ratio to wild type); higher = more cleavage; in vitro, sequencing. In a few lines: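 Libraries of CPEB3 self-cleaving ribozyme mutants came from rounds of error-prone PCR and carried barcodes, which DNA sequencing matched to variants. In vitro transcription used T7 RNA polymerase at 37°C for 5 hours, with a further 15 min in DNase I before EDTA stopped the reaction; the ribozymes cleaved during both steps. The RNA was reverse transcribed with template switching and sequenced on Illumina. Relative activity is the cleaved/total read fraction of a variant divided by that of the unmutated ribozyme, averaged over three batches with at least 5 reads.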
For the variant A5U G9A A75G, the self-cleavage is 0.47.
As for A5U A28U A45G A56U, the self-cleavage is 0.57.
As for A5U A15C G33A A45G A56U, the self-cleavage is 0.1.
Next, A5U C12U U54A G63C A65G U67C: 0.32; A5U G6A G10A A15G: 0.41; A5U G9A A57G U60A U66C: 0.14.
As to A5U A18G U80A, the self-cleavage was determined as 1.19.
For A5U A20G U54C U60C U80C, the self-cleavage is 0.44.
For the variant A5U G7A U25A A28U U51A, the self-cleavage came out at 0.28.
In the case of A5U C11A U31C U43C U51C U67C, the self-cleavage came to 0.05.
As for A5U G7A G10C A18G U43C, the self-cleavage is 0.04.
With A5U U25A U26C C29U, the self-cleavage was 0.21.
Consider A5U U26C C27G U72C, for which the self-cleavage amounted to 0.23.
As for A5U A13U U49C G53U U78A, the self-cleavage worked out at 1.15.
Take A5U A15G U72C: the self-cleavage turned out to be 1.15.
For the variant A5U A28G C38U U54A A57G U80C, the self-cleavage worked out at 0.09.
A5U G10U A18U A20U U25C U67A C71G: the self-cleavage came to 0.03.
As to A5U G7A U41A U66A, the self-cleavage came out at 0.06.
A5U G7A A57G: the self-cleavage turned out to be 0.14.
In the case of A5U G24U G30A A45G, the self-cleavage stood at 0.26.
For A5U A18U U26C, the self-cleavage was 0.33.
With A5U G10A G19A, the self-cleavage was determined as 0.39.
The same measure for A5U A35U G42C U60C U69C G73A U80G: 0.13; for A5U U25C G63U U72C: 0.17; for A5U G24A U25C A57G U58C: 0.31.
A5U A18G U51A A56G U60G: the self-cleavage was 0.26.
In the case of A5U A28G C37U A56G U60C, the self-cleavage is 0.13.
The same measure for A5U A15U C27U U66C U67C: 0.19.
For the variant A5U G10U C17U G30A U51A U69G, the self-cleavage was determined as 0.08.
Next, A5U A18G A77G: 1.03; A5U C11U U49C: 0.21.
The same measure for A5U A45U A57G: 0.67; for A5U A18G U41C: 0.89.
Take A5U A20G C40A U58A A64G U66C: the self-cleavage amounted to 0.09.
A5U A18U C32G U48C: the self-cleavage was determined as 0.2.
Take A5U A45U U67A: the self-cleavage was 0.24.
Take A5U C12U A28G A57G: the self-cleavage was 0.75.
For A5U A18U A20U U66C, the self-cleavage worked out at 0.26.
As for A5U C11U A13G A47G U49C U58A U80C, the self-cleavage came to 0.31.
For the variant A5U G36A U58C U69A, the self-cleavage came out at 0.18.
For A5U U26A A47G G70A A75G, the self-cleavage was 0.47.
For the variant A5U G8U A18G U49A, the self-cleavage came out at 0.21.
Consider A5U A20U U25C G33A U41A G73A, for which the self-cleavage turned out to be 0.53.
Consider A5U U26A U48A, for which the self-cleavage came to 0.25.
Take A5U U26A G30A U54A U76C: the self-cleavage was found to be 0.17.
A5U A15G U31C U60C A64U: the self-cleavage is 0.09.
Turning to A5U A18U U41A A65G U66A, the self-cleavage is 0.16.
As for A5U A18G U43C A45G U72C A77G, the self-cleavage amounted to 0.33.
For the variant A5U U26A A35G U54A U76A, the self-cleavage was 1.21.
In the case of A5U U26C A45G A57C U72A U78C, the self-cleavage was 0.09.
The same measure for A5U C12A U54C C71U G73A: 1.04; for A5U G6A A64G U66C U78C: 0.44.
Next, A5U A35G U43A A75G: 1.3; A5U A15U U25C: 0.36.
Take A5U A18U U26A U48A U51A: the self-cleavage was determined as 0.23.
For the variant A5U C23U A28U A35G U51C A57G, the self-cleavage was determined as 0.71.
Turning to A5U U26A U49C G70A U80C, the self-cleavage worked out at 0.15.
Take A5U G8A C11U C29U U41C U49A U67C: the self-cleavage is 0.13.
As to A5U C12A U58A U72G, the self-cleavage was 0.39.
Next, A5U A45U U60G: 0.74.
For the variant A5U G6A G19U C27A C38A, the self-cleavage was 0.14.
As to A5U G9U A20C U25C A45G, the self-cleavage was determined as 0.11.
The same measure for A5U A20G U26C A57G U66C: 0.14; for A5U G9U U31C: 0.08.
Consider A5U A18U G30U U72C, for which the self-cleavage turned out to be 0.28.
A5U A28U U41C U66C: the self-cleavage was determined as 0.34.
Next, A5U U26C G42C U49C: 0.33.
Next, A5U A35U U41A G63A U72C: 0.11.
On to A5U A18U A20G U31C C79G, for which the self-cleavage came out at 0.11.
For the variant A5U A47G U60A, the self-cleavage came out at 0.39.
For the variant A5U A15C U49G A56G U66C C71G U80C, the self-cleavage stood at 0.05.
In the case of A5U A18U U69G U72C, the self-cleavage is 1.09.
For A5U A20U U48A A64G U67C, the self-cleavage came out at 0.17.
A5U A18U U31A U49C U80A: the self-cleavage stood at 0.09.
With A5U G10U U41C A56G G63U, the self-cleavage is 0.35.
On to A5U A35U G52U, for which the self-cleavage stood at 1.1.
On to A5U A15G A18U U25C, for which the self-cleavage was 0.39.
Take A5U G10U A18C G36A U80A: the self-cleavage worked out at 0.06.
For the variant A5U A18G A20C U26C U41C G63A, the self-cleavage was found to be 0.49.
A5U U25C A35C G42A A47G U49C: the self-cleavage was 0.08.
With A5U A28C A35G A45G, the self-cleavage is 1.22.
For A5U C14U A20G, the self-cleavage is 0.57.
Next, A5U C12U A20U U26C C40G U54C: 0.05.
For A5U C50U G63A U80A, the self-cleavage came to 1.1.
Turning to A5U A15U U43A G61A U67A A75U U76C, the self-cleavage stood at 0.32.
The same measure for A5U A35G A47C: 1.21; for A5U A35G A45G U51A A64U: 1.01; for A5U G8C A15G C27A A64G: 0.
Next, A5U A20G A28G U58C A64G U72C: 0.2; A5U A21U U43A A65G: 0.35.
Consider A5U A57G A65U, for which the self-cleavage amounted to 0.19.
Regarding A5U C14U G30A U43C U78C, the self-cleavage stood at 0.06.
For A5U A35G G36C U54C C62U U80C, the self-cleavage was determined as 0.31.
In the case of A5U G6U U41A, the self-cleavage worked out at 0.39.
On to A5U G9A A15G A47G U54G, for which the self-cleavage stood at 0.46.
As to A5U C40A U60A A75U, the self-cleavage is 0.06.
Turning to A5U C12U U48C U60C U69G, the self-cleavage was determined as 0.14.
Next, A5U A21G U26C U51C U78C U80C: 0.13; A5U A21G U26C A35U U60C C62A G73U: 0.05.
The same measure for A5U U25A C29U G42U U48A A56U G70U: 0; for A5U A21G U48C U67C: 0.32; for A5U A28U U49A U51C U78C: 0.5.
In the case of A5U A21G A28G A45G U60G, the self-cleavage came to 0.14.
Turning to A5U A15U A21G U26C U51A U76C C81U, the self-cleavage amounted to 0.3.
A5U C32A C38G U69C: the self-cleavage stood at 0.16.
Consider A5U A15U A35U G53C U58C, for which the self-cleavage is 0.22.
For the variant A5U A21G A28U C50G U51C A56G, the self-cleavage worked out at 0.11.
In the case of A5U U26A U80A, the self-cleavage is 1.14.
As for A5U A15U G42U A56U U69C, the self-cleavage amounted to 0.12.
Turning to A5U A35U U49A U78C, the self-cleavage worked out at 0.32.
Next, A5U G9U C11G A45G: 0.29; A5U A18G A20U U51C G63A: 0.04; A5U A18U U26C A77C U80C: 0.17.
Turning to A5U A21U U48C U69G A75G U78C, the self-cleavage was found to be 0.06.
As to A5U G7C A47U G70C, the self-cleavage is 0.04.
A5U U26A C44U: the self-cleavage amounted to 0.85.
Take A5U G7A U26C A45G: the self-cleavage stood at 0.25.
For the variant A5U C34U C40G A45U U49A, the self-cleavage is 0.1.
A5U A13U U26A C40U U58C U67C U72G: the self-cleavage was 0.06.
With A5U A20U U26A A57G U66G U80C, the self-cleavage came to 0.14.
As for A5U A21G A35G C68G, the self-cleavage amounted to 0.49.
Consider A5U A15G A28U U41A U60C U69C, for which the self-cleavage was determined as 0.17.
For A5U A15G C27A U76A, the self-cleavage turned out to be 0.09.
Next, A5U A47G G55A U72C: 0.98.
Next, A5U C11U A20G U41C A47G U49C: 0.04.
Turning to A5U U26C A35G U43A U49C U67C, the self-cleavage turned out to be 0.09.
On to A5U A18G C23U A75U, for which the self-cleavage stood at 0.08.
Regarding A5U U26C U41C U69G, the self-cleavage is 0.44.
Consider A5U U26C A56C A65C, for which the self-cleavage was found to be 0.19.
For the variant A5U G8A U25C G36C C38U A45U U51G, the self-cleavage turned out to be 0.04.
As for A5U C23A U31G A35U G36A U58C U72C, the self-cleavage turned out to be 0.08.
As for A5U G10U C14U A20U, the self-cleavage worked out at 0.06.
On to A5U A21G A47U U51C A64U, for which the self-cleavage turned out to be 0.14.
Turning to A5U U25C A35G C37U U41C, the self-cleavage turned out to be 0.41.
The same measure for A5U G8U A21G U25C U51C A56U: 0.15; for A5U C14U A18G U72A U78A: 0.69.
Next, A5U A13U C37A G73A U80C: 0.65; A5U A20G U49C A75U: 0.67; A5U U25C U41C A64G: 0.12.
Consider A5U A18G U58C U69C, for which the self-cleavage was 0.7.
For the variant A5U G7C G10A A13G A18U, the self-cleavage was 0.56.
Turning to A5U A18G A47U U48C, the self-cleavage turned out to be 0.13.
As to A5U A18G U43C, the self-cleavage turned out to be 0.23.
A5U A28G C40A C50U A64C U69C: the self-cleavage came to 0.14.
A5U G9A A20G U25C A45U C59A U72A: the self-cleavage amounted to 0.04.
Turning to A5U A57C A64G U66A A75U, the self-cleavage came out at 0.08.
Consider A5U G10A A18G C38U C40U A64G U67C, for which the self-cleavage turned out to be 0.03.
The same measure for A5U C17G A35U: 0.05; for A5U A45G G53C G61C U69A: 0.37.
The same measure for A5U G9A C38U U69A U72A: 0.08; for A5U A28G A57U: 0.49.
For A5U A15G A28U A35U U41A U54C U67A, the self-cleavage is 0.13.
For A5U A35G A64G, the self-cleavage was found to be 1.25.
As to A5U A47G U51A A65G U74C, the self-cleavage turned out to be 0.83.
Turning to A5U C40A A64G U66C C68U, the self-cleavage is 0.2.
As for A5U A56U U69C U72C U76C, the self-cleavage came out at 0.17.
Turning to A5U G10A A13G A35G C38G U67C, the self-cleavage turned out to be 0.14.
For A5U G10C G52A G70U, the self-cleavage turned out to be 0.06.
For the variant A5U A28C U31A A35G U60C, the self-cleavage was 0.52.
Regarding A5U G24A C71U U80C, the self-cleavage turned out to be 0.25.
In the case of A5U A18G A56G A57G U60C U80C, the self-cleavage came to 0.18.
For A5U G19U U25C A56G A57G A77G U80A, the self-cleavage worked out at 0.06.
Consider A5U A20G U48A U66C, for which the self-cleavage amounted to 0.08.
As to A5U C12U A35U U78C, the self-cleavage worked out at 0.7.
Consider A5U A35U U51C, for which the self-cleavage turned out to be 0.62.
Consider A5U G24U U26C A28G C37G U43C U69A, for which the self-cleavage was determined as 0.05.
As to A5U C17G U60C U78C, the self-cleavage amounted to 0.22.

(Values after the RNAGym collection of RNA variant scans (doi:10.1093/nar/gkz1192).)
